{
  "source": "PubChem BioAssay AID2546",
  "about": "(National Center for Advancing Translational Sciences (NCATS), 2010)",
  "note": "Hit rate of the full screen: of about 310,000 compounds, about 11,000 (3.5%) were called active. This list was built around the results that the source calls inconclusive (neither active nor inactive); the mix of calls is not that of the screen. The call rests on the fitted dose curve; in most records, active means well fitted inhibition curve with a large enough effect; inconclusive means small, poorly fitted or top-dose-only effect, or effect the other way; inactive means flat fitted curve, though single readings scatter. No potency is given beside an inconclusive call; the fits are too rough. Potency means the concentration at half of the fitted maximal effect; tags describe the fitted curve by direction and shape.",
  "data": [
    {"assay": "VP16 counterscreen qHTS for inhibitors of ROR gamma transcriptional activity;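 further: Gal4-VP16 expression switched on by copper sulfate through the metallothionein promoter; nearly all actives have a fitted effect of over 50% in size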", "conditions": "Drosophila S2 Gal4-VP16 UAS-luciferase, luminescence, 20 h; series mostly up to 53.6 µM", "values": [
      {"smiles": "Cc1ccc(-n2nnnc2-c2cnc(-c3cccnc3)nc2C(F)(F)F)cc1", "Potency": "inconclusive [inhibitor, single point]"},
      {"smiles": "CN(C)c1ccc(/C=C2/C(=O)Nc3ccccc32)cc1", "Potency": "inactive"},
      {"smiles": "Cc1ccc(O)c(-c2cc(-c3cccc(F)c3)n[nH]2)c1", "Potency": "inconclusive [inhibitor, single point]"},
      {"smiles": "Cc1c(C(=O)N2CCC[C@H]2CO)oc2c(F)cccc12", "Potency": "inactive"},
      {"smiles": "CCC(C)(C)c1ccc(Oc2ccc(N)cc2)cc1", "Potency": "active: 7.94 µM"},
      {"smiles": "Cc1ccccc1Nc1nc(=O)c2cc([N+](=O)[O-])ccc2s1", "Potency": "inconclusive [inhibitor, single point]"},
      {"smiles": "CCOC(=O)CC1Sc2ccccc2NC1=S", "note": "(configuration not stated)", "Potency": "inconclusive [inhibitor, single point]"},
      {"smiles": "Clc1ccccc1C1CC(c2ccccc2)Nc2ncnn21", "note": "(configuration not stated)", "Potency": "inactive"},
      {"smiles": "CC1=Nc2cc(C(=O)O)ccc2Sc2ccc(Br)cc21", "Potency": "inactive"},
      {"smiles": "O=C(NCc1ccco1)c1cnn2c(C(F)(F)F)cc(-c3ccccc3)nc12", "Potency": "active: 11.2 µM"},
      {"smiles": "CC(=O)NC12CC3CC(C1)CC(C(=O)Nc1nc4ccc(F)cc4s1)(C3)C2", "Potency": "inactive"},
      {"smiles": "Cc1ccnn1CCC(=O)N1CCCC(Nc2ccc(F)c(F)c2)C1", "note": "(configuration not stated)", "Potency": "inactive"},
      {"smiles": "CCOc1ccc(Br)cc1C1=NN(C(C)=O)C(c2ccc([N+](=O)[O-])s2)O1", "note": "(configuration not stated)", "Potency": "inconclusive [inhibitor, single point]"},
      {"smiles": "CC(C)Cc1csc(NC(=O)c2ccc(F)cc2)c1C(=O)O", "Potency": "inconclusive [activator, single point]"},
      {"smiles": "C/C(=N\\NC(=O)c1cccc(S(=O)(=O)Nc2cccc(Cl)c2)c1)c1cccs1", "Potency": "active: 3.98 µM"},
      {"smiles": "O=C(Nc1ccncc1)c1cncc(Br)c1", "Potency": "inactive"},
      {"smiles": "CC1(C)SC(=S)N(NC(=O)Nc2cccc3ccccc23)C1N(O)C(=O)Nc1ccccc1", "note": "(configuration not stated)", "Potency": "inconclusive [inhibitor, single point]"},
      {"smiles": "CC(NC(=O)CCSCc1ccccc1F)c1ccccc1", "note": "(configuration not stated)", "Potency": "inconclusive [activator, partial curve]"},
      {"smiles": "CCC(=O)Nc1ccc(/C(C)=N/NC(=O)c2c(Br)c(C)nn2C)cc1", "Potency": "inactive"},
      {"smiles": "O=C(N/N=C/c1ccc2c(c1)OCO2)c1sc2cccc(Cl)c2c1Cl", "Potency": "inconclusive [inhibitor, single point]"},
      {"smiles": "CC1CC1C(=O)Nc1nc(-c2ccccn2)cs1", "note": "(configuration not stated)", "Potency": "inconclusive [inhibitor, single point]"},
      {"smiles": "COc1cc(C(=O)Sc2ccc(Cl)cc2)cc(OC)c1OC", "Potency": "inconclusive [inhibitor, single point]"},
      {"smiles": "CCn1c(SCC(=O)N2CCCCCC2)nc2c([nH]c3ccccc32)c1=O", "Potency": "inactive"},
      {"smiles": "CCc1ccc2nc(N(CCCN(C)C)C(=O)c3ccc(C(=O)c4ccccc4)cc3)sc2c1", "Potency": "inconclusive [inhibitor, single point]"},
      {"smiles": "CCc1c(C)nc2nc(SCc3ccccc3Cl)[nH]n2c1=O", "Potency": "active: 25.1 µM"},
      {"smiles": "CCCC(=O)Nc1ccc(C(=O)NCC2CCCO2)cc1", "note": "(configuration not stated)", "Potency": "inactive"},
      {"smiles": "Cc1cccc(N=Nc2ccc(O)c3ncccc23)c1", "Potency": "active: 0.0355 µM"},
      {"smiles": "Cn1c(=O)oc2cc(S(=O)(=O)N3CCCC(C(=O)NCC4COc5ccccc5O4)C3)ccc21", "note": "(configuration not stated)", "Potency": "inactive"},
      {"smiles": "C=CCNc1oc(-c2ccc(OC)cc2)nc1C#N", "Potency": "inconclusive [activator, full curve, poor fit]"},
      {"smiles": "N=C(N)S/C=C\\C(=O)O", "Potency": "active: 31.6 µM"},
      {"smiles": "Cc1nc2nc(-c3ccc(Cl)cc3)cn2nc1C", "Potency": "inconclusive [inhibitor, single point]"},
      {"smiles": "O=C(Nc1ccc(F)cc1)C1CCCCC1", "Potency": "inactive"},
      {"smiles": "O=C(CCl)N(c1ccccc1)c1c[nH]c2ccccc12", "Potency": "inconclusive [inhibitor, single point]"},
      {"smiles": "Cc1cccc(C)c1NC(=S)NNc1ncc(C(F)(F)F)cc1Cl", "Potency": "inconclusive [inhibitor, single point]"},
      {"smiles": "COc1ccccc1-c1cncnc1N(C)Cc1ccco1", "Potency": "inactive"},
      {"smiles": "CCOC(=O)c1ccc(NC(=O)CC2C(=O)N(c3cccc(OC)c3)C(=O)N2CCOC)cc1", "note": "(configuration not stated)", "Potency": "inconclusive [activator, full curve]"},
      {"smiles": "O=C1CC(Sc2ncccc2C(=O)O)C(=O)N1", "note": "(configuration not stated)", "Potency": "inactive"},
      {"smiles": "Cc1ccc(N2C(=O)CSC2c2ccccn2)cc1Cl", "note": "(configuration not stated)", "Potency": "inconclusive [inhibitor, single point]"},
      {"smiles": "CCS(=O)(=O)n1nc(-c2ccccc2)nc1NCc1ccco1", "Potency": "inactive"},
      {"smiles": "Cc1cccc(/C=C2/Sc3ccc(C(=O)NCCCN4CCOCC4)cc3NC2=O)c1", "Potency": "inconclusive [inhibitor, single point]"},
      {"smiles": "CCCNC(=O)c1ccc(N2CCC3(CC2)CC(c2ccccc2)=NO3)c([N+](=O)[O-])c1", "Potency": "inconclusive [inhibitor, single point]"},
      {"smiles": "S=c1[nH]nc(-c2ccccc2)n1Cc1ccccc1", "Potency": "active: 14.1 µM"},
      {"smiles": "COc1cccc(/C=N/NC(=O)CSc2ccccc2C)c1O", "Potency": "active: 0.794 µM"},
      {"smiles": "Cc1cc2nc(-c3ccc(SCC(=O)N4CCc5ccccc54)nc3)[nH]c2cc1C", "Potency": "inconclusive [inhibitor, single point]"},
      {"smiles": "O=C(CSc1ncn[nH]1)Nc1nc(-c2cccc([N+](=O)[O-])c2)cs1", "Potency": "active: 17.8 µM"},
      {"smiles": "Cc1ccc(NC(=O)CC2SC(=O)NC2=O)cc1", "note": "(configuration not stated)", "Potency": "active: 4.47 µM"},
      {"smiles": "CCSc1nc(N)nc(-c2cccs2)c1C#N", "Potency": "inconclusive [activator, partial curve]"},
      {"smiles": "CC(=O)Nc1cccc(C(=O)/C=C/c2ccc(/C=C/C(=O)c3cccc(NC(C)=O)c3)cc2)c1", "Potency": "inconclusive [inhibitor, single point]"},
      {"smiles": "Cc1c(C(=O)NCCSCc2cccc(C(F)(F)F)c2)cnn1-c1ccc(F)cc1", "Potency": "inactive"},
      {"smiles": "CCOC(=O)c1sc(NC(=O)c2sccc2C)cc1C", "Potency": "inactive"},
      {"smiles": "COc1ccccc1COCC(O)CN(Cc1ccco1)Cc1ccccc1O", "note": "(configuration not stated)", "Potency": "inconclusive [inhibitor, single point]"},
      {"smiles": "CCN(CC)c1ccc(N=Cc2c(C)[nH]c3ccccc23)cc1", "Potency": "inconclusive [inhibitor, single point]"}
    ]}
  ]
}
